Measurements reported in PubChem BioAssay AID488969 (Vanderbilt High Throughput Screening Facility, 2010).
Whole data set: some 110,000 compounds, median “z-score” near -0.1, cut for the highest 2% near 2. Some of the results follow. Active and inactive are the calls of the source.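 Rule for the calls: active = z-score in the third read window above 3 or below -3; inactive = the rest.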

target: Metabotropic glutamate receptor 8 (Rattus norvegicus) (UniProt P70579); experiment: rat mGluR8 modulators via GIRK flux, primary screen, cell-based, thallium flux, HTS (AID 488969); settings: HEK293 rat mGluR8, GIRK (G protein-gated inwardly rectifying potassium channel) thallium flux, FluoZin2; at 10 µM; stronger effect = higher value; submaximal glutamate (EC20) added with thallium
UniProt P70579, sequence (P70579 whole entry, looked up): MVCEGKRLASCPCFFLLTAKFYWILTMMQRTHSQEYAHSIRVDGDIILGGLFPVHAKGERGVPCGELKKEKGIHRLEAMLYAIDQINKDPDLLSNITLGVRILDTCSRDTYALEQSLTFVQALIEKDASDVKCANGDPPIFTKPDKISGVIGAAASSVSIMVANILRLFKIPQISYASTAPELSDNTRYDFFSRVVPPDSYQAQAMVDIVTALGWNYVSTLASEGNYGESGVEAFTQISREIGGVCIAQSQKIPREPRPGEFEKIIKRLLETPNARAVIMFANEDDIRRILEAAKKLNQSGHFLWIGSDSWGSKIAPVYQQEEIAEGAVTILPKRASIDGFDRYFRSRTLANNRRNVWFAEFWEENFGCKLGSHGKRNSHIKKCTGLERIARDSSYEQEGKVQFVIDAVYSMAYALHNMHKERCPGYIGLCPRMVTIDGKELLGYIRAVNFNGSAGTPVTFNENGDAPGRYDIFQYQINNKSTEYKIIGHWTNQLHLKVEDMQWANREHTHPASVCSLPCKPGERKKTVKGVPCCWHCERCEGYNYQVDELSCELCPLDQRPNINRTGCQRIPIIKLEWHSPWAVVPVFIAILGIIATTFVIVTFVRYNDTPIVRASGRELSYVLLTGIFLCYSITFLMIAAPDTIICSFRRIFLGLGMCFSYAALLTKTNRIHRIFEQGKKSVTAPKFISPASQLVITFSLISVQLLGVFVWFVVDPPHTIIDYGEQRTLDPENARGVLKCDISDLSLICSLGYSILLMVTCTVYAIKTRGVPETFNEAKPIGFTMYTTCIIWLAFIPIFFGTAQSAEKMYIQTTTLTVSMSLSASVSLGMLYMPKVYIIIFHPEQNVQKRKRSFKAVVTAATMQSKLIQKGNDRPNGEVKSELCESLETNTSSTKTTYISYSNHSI

O=C(O)c1ccc(CSc2nnc(COc3ccc(Cl)cc3Cl)o2)cc1 was tested. Which z-score did it give?
Its z-score is -0.956.

Which z-score does the source give for O=C(CCn1nnc2ccccc21)Nc1nnc(COc2ccccc2F)s1 here?
Its z-score is -0.232.

How did the z-score turn out when COC(=O)c1sc(S(=O)(=O)NCc2cccs2)c(C(=O)OC)c1C was run?
The z-score was -0.608.

How did the z-score turn out when COc1ccc(CCNS(=O)(=O)c2ccc(OC)cc2)cc1 was run?
Its z-score is -0.167.

CC(=O)Nc1cccc(C(=O)OCc2ccccc2)c1 was tested. Which z-score did it give?
The z-score was -0.205.

How did the z-score turn out when CCOC(=O)C1CCN(Cc2cnc(Oc3ccc(C(C)(C)C)cc3)s2)CC1 was run?
Its z-score is -0.141.

Which z-score does the source give for O=C(CN1CCN(Cc2ccc(F)cc2Cl)C1=O)NCCc1ccc(Cl)cc1 here?
The z-score was -0.188.

With O=C(CN1CCN(C(=O)N2CCOCC2)CC1)Nc1ccc(Br)cc1 as the molecule, how does the z-score read?
The z-score was -0.0769.

Which z-score does the source give for CCOC(=O)C1=C(C)N=C2c3ccccc3C(=O)C2C1c1ccc(Br)cc1 (stereo not given) here?
Its z-score is -0.196.

CC(=O)Nc1ccc(SCC(=O)N(CCC#N)c2cc(C)cc(C)c2)cc1 was tested. Which z-score did it give?
Its z-score is -0.254.

CCc1nc2scc(-c3cccs3)c2c(=O)o1 was tested. Which z-score did it give?
Its z-score is -0.0119.

CC(=O)Cc1nsc(NC(=O)c2ccc(-c3cccc(C(F)(F)F)c3)o2)n1 was tested. Which z-score did it give?
Its z-score is 0.0938.

For Cc1ccc2cccc(O)c2[n+]1[O-], which z-score is on record?
Its z-score is 0.155.

COc1cc(/C=C/C(=O)OCC(=O)Nc2ccc(C)c(S(=O)(=O)N3CCCCC3)c2)ccc1O was tested. Which z-score did it give?
Its z-score is -0.427.

For Cc1cccc(C)c1C(=NCCCN(C)C)c1ccccc1, which z-score is on record?
The z-score was 0.959.

How did the z-score turn out when COc1ccc(Nc2nc3ccccc3n3nnnc23)cc1 was run?
The z-score was -0.186.

With O=C(NC1CCCC1)C(c1cccs1)N(C(=O)c1ccco1)c1ccc2c(c1)OCO2 (stereo not given) as the molecule, how does the z-score read?
Its z-score is -0.208.

How did the z-score turn out when CCc1nnc(NC(=O)/C=C/c2ccc(C)o2)s1 was run?
The z-score was -0.436.

For Cc1[nH]c(=O)[nH]c(=O)c1CSc1nnc([C@@H](NC(=O)OC(C)(C)C)C(C)C)o1, which z-score is on record?
The z-score was -0.0451.

How did the z-score turn out when COCCn1c(SCC(=O)OC(C)C)nnc1-c1ccccc1 was run?
Its z-score is -0.0563.

For CCn1c2ccccc2c2nnc(SCC(=O)Nc3cc(C)on3)nc21, which z-score is on record?
The z-score was -0.57.

For Cc1ccc(C(=O)N/C(=C\c2cccs2)C(=O)NCCc2c[nH]c3ccccc23)cc1, which z-score is on record?
The z-score was -0.278.

With Cc1ccc(C)c(N2CCN(c3nc4ccccc4c(=O)n3Cc3ccccc3)CC2)c1 as the molecule, how does the z-score read?
The z-score was 0.844.

With C=CCNC(=O)c1ccc2c(c1)nnn2C as the molecule, how does the z-score read?
Its z-score is 1.21.

COc1ccc(-c2nc(CC(=O)O)cs2)cc1 was tested. Which z-score did it give?
The z-score was -0.189.

With CCOc1ccc(-n2cnnn2)cc1S(=O)(=O)Nc1c(C)cccc1C as the molecule, how does the z-score read?
The z-score was 0.922.

For O=C(CSc1nnc(CNC(=O)c2ccco2)o1)c1ccc(Cl)cc1, which z-score is on record?
The z-score was 1.44.

For C/C(=N\Nc1cc(Cl)nc(C)n1)c1ccc(Cl)c(Cl)c1, which z-score is on record?
The z-score was -0.151.

How did the z-score turn out when O=C(N/N=C/c1ccccc1)c1c(O)c2ccccc2[nH]c1=O was run?
The z-score was -0.294.

With COC(=O)CSc1nnc(SCc2ccc(OC)cc2)s1 as the molecule, how does the z-score read?
Its z-score is active: -3.01.

How did the z-score turn out when CC1=C(C(=O)Nc2ccccc2)C(c2ccco2)n2ncnc2N1 (stereo not given) was run?
Its z-score is -0.45.

Which z-score does the source give for CCN1CCN(CC(O)COc2cccc(OC)c2)CC1 (stereo not given) here?
The z-score was 1.01.

For CCN(CC)c1ccc(-c2nnc(SCC(=O)Nc3ccccc3C#N)n2-c2ccccc2)cc1, which z-score is on record?
Its z-score is -0.885.

For O=S(=O)(Nc1ccncc1)c1ccc(Cl)cc1, which z-score is on record?
The z-score was -0.16.

How did the z-score turn out when Cc1cc(C)c2c(c1)cc(C)c1nnc(SCC(=O)Nc3ccccc3N3CCOCC3)n12 was run?
The z-score was 0.0516.

For COc1ccc(N(CC(=O)N2CCc3ccccc3C2)S(C)(=O)=O)cc1OC, which z-score is on record?
Its z-score is 0.0527.

Which z-score does the source give for Cc1ccc(OCC(=O)Nc2ccc(-c3nnc(-c4ccco4)o3)cc2)cc1 here?
The z-score was 0.14.

How did the z-score turn out when Cc1ccc(CN(CC(=O)NC2CCCC2)C(=O)CSc2nnc(COc3ccccc3)o2)cc1 was run?
Its z-score is 0.165.

Which z-score does the source give for Cc1ccc(NC(=O)CCSc2ccccn2)cc1 here?
The z-score was 0.231.

How did the z-score turn out when COc1ccc(/C=C/c2cc(=O)c3cc(Cl)ccc3o2)cc1 was run?
The z-score was -0.248.

Which z-score does the source give for Cc1ccc(S(=O)(=O)N2CCCC2c2nc3ccccc3s2)cc1 (stereo not given) here?
The z-score was 0.106.

For COc1ccc(NC(=O)NCc2cccnc2)cc1OC, which z-score is on record?
Its z-score is 0.0502.

With Cc1nn(CC(=O)Nc2ccc3c(c2)nc(CN2CCCCC2)n3C)c(=O)c2ccccc12 as the molecule, how does the z-score read?
The z-score was -0.07.

How did the z-score turn out when COc1ccccc1C=NC(CO)C(O)c1ccc([N+](=O)[O-])cc1 (stereo not given) was run?
Its z-score is 1.75.

For O=C(NCc1ccccc1Cl)c1cnn2cccnc12, which z-score is on record?
The z-score was 0.242.

For c1ccc(-c2noc(CN3CCN(C(c4ccccc4)c4ccccc4)CC3)n2)cc1, which z-score is on record?
Its z-score is -0.00606.

Cc1ccc(-c2nnn(CC(=O)NCCC3=CCCCC3)n2)cc1 was tested. Which z-score did it give?
The z-score was 1.16.

With CCOc1ccccc1Nc1nc(-c2sc(NC(=O)c3ccco3)nc2C)cs1 as the molecule, how does the z-score read?
Its z-score is -0.0936.

COCCOC(=O)C1=C(C)N(Cc2ccccc2)C(=O)NC1c1ccc(OC)cc1 (stereo not given) was tested. Which z-score did it give?
The z-score was -0.162.

CN1CCC(N(C)C(=S)NC(=O)C23CC4CC(CC(C4)C2)C3)CC1 was tested. Which z-score did it give?
Its z-score is 0.094.

With COc1cc(C2=NOC(C(=O)NCc3ccc(F)cc3)C2)cc(OC)c1OC (stereo not given) as the molecule, how does the z-score read?
The z-score was 0.327.

Fc1ccc(CNC(=S)Nc2ccc(OC(F)F)cc2)cc1 was tested. Which z-score did it give?
The z-score was 1.07.

Which z-score does the source give for O=C(NCCCc1ccccc1)Nc1ccccc1 here?
The z-score was 0.456.

With Cc1ccc(C(C)C)c(OCc2ccc(C(=O)N/N=C/c3ccc(O)c(O)c3)cc2)c1 as the molecule, how does the z-score read?
Its z-score is -0.162.

How did the z-score turn out when Cc1cccc(N=C/C(C(=O)C(F)(F)F)=C(\O)c2ccco2)c1 was run?
The z-score was -0.299.

Which z-score does the source give for Cn1nc(-c2ccccc2F)c2cc(C(=O)N3CCN(C(=O)c4ccco4)CC3)sc21 here?
The z-score was -0.882.

With O=S(=O)(c1ccc(Cl)s1)N1CCC(Cc2ccccc2)CC1 as the molecule, how does the z-score read?
The z-score was 0.0121.

With Cc1nn(CC(=O)NCc2ccc(OC(C)C)cc2)c(=O)c2cc3occc3n12 as the molecule, how does the z-score read?
The z-score was -0.4.

How did the z-score turn out when Cn1cc(S(=O)(=O)N2CCc3ccccc3C2)c(=O)n(C)c1=O was run?
Its z-score is -0.0164.

For Cc1cc2cc(CNC(=O)c3ccc(S(=O)(=O)N4CCCCC4)cc3)ccc2n1C, which z-score is on record?
Its z-score is 0.382.

How did the z-score turn out when CCOC(=O)c1[nH]c(C)c(C(=O)OCC(=O)N(CC)C2CCS(=O)(=O)C2)c1C (stereo not given) was run?
The z-score was -0.798.

With Brc1ccc(-c2nnc3n2CCCCC3)cc1 as the molecule, how does the z-score read?
Its z-score is -0.275.

Which z-score does the source give for COc1ccc(Oc2c(Cl)cnn(-c3ccc(C)cc3)c2=O)cc1 here?
Its z-score is 0.102.

CC(C)c1c(O)c2c(n(-c3ccccc3)c1=O)CCCC2 was tested. Which z-score did it give?
The z-score was -0.462.

For O=C(Nn1cnnc1)c1cc2c(s1)CCCC2, which z-score is on record?
The z-score was 0.889.

With COCC(=O)N(Cc1cc2ccc(C)cc2[nH]c1=O)c1ccc(OC)cc1 as the molecule, how does the z-score read?
The z-score was -0.0778.

Which z-score does the source give for COCCNC(=O)c1onc(CSc2ccc(F)c(F)c2)c1C(=O)O here?
The z-score was -0.13.

Which z-score does the source give for O=C(NC1CCCC1)c1ccc(CS(=O)(=O)c2cccc(C(F)(F)F)c2)o1 here?
The z-score was 0.632.

For CNC(=S)Nc1cc(C(F)(F)F)ccc1Cl, which z-score is on record?
Its z-score is -0.109.

O=C(NC1CCCCC1)C(c1cccnc1)N(C(=O)CCl)c1ccc(F)cc1 (stereo not given) was tested. Which z-score did it give?
The z-score was 0.00996.
